{"source": "PubChem BioAssay AID485313", "about": "(National Center for Advancing Translational Sciences (NCATS), 2010)", "note": "Among all 320,000 compounds or so, about 7,600 (2.4%) were called active. This list was built around the results that the source calls inconclusive (neither active nor inactive); the mix of calls is not that of the screen. The call rests on the fitted dose curve; in most records, active means well fitted activation curve with a large enough effect; inconclusive means small, poorly fitted or top-dose-only effect; inactive means no such curve, though single readings can be large or run the other way. No potency is given beside an inconclusive call; the fits are too rough. Potency means the concentration at half of the fitted maximal effect; tags describe the fitted curve by direction and shape.", "data": [{"test": "qHTS Assay for NPC1 Promoter Activators; further: nearly all actives have a fitted effect of over 60% in size;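 on activation: reporter is driven by a mutant NPC1 promoter; % of control where 0% means no effect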", "settings": "Huh7 NPC1 promoter luciferase reporter, 24 h; series mostly up to 9.22 µM; activation: at the top concentration", "summary_of_the_method": "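NPC1 promoter–luciferase Huh7 cells; 24 h compound; luminescence.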", "values": [{"smiles": "Cc1cc([N+](=O)[O-])ccc1NC(=O)/C=C/c1cccs1", "Potency": "inconclusive [activator, partial curve]"}, {"smiles": "COc1ccccc1NC(=S)N/N=C/c1ccc(O)cc1", "Potency": "inconclusive [activator, single point]"}, {"smiles": "COc1ccc(CCNC(=S)N2CCC(Cc3ccccc3)CC2)cc1OC", "activation": "inactive: -16.7%"}, {"smiles": "COc1ccccc1N(CC(O)CN1CCCCC1)S(=O)(=O)c1ccc(C)cc1", "note": "(stereo unspecified)", "activation": "inactive: 1.25%"}, {"smiles": "CC(C)N(C(=O)NC(=O)NCC1CCCO1)S(C)(=O)=O", "note": "(stereo unspecified)", "activation": "inactive: -1.1%"}, {"smiles": "O=C(Nc1nc(-c2ccccc2)cs1)C1CCCO1", "note": "(stereo unspecified)", "Potency": "inconclusive [activator, single point]"}, {"smiles": "O=C(/C=C/c1ccc(Cl)c(Cl)c1)NC1=NCCS1", "Potency": "active: 2.82 µM"}, {"smiles": "COC(=O)c1sc2ccccc2c1-n1cccc1C(=O)C(=O)Nc1ccc(C)cc1", "Potency": "inconclusive [activator, partial curve]"}, {"smiles": "CCN(CC(=O)NCc1ccc(Cl)cc1)C(=O)/C=C/c1ccccc1", "activation": "inactive: -2.34%"}, {"smiles": "COc1ccc(C2=NN(CN3C(=O)C(=O)c4ccccc43)C(c3ccc(C)cc3)C2)cc1", "note": "(stereo unspecified)", "Potency": "inconclusive [activator, partial curve]"}, {"smiles": "CC1=NN(c2ccccc2)C(=O)/C1=C/c1cccc(C)c1", "activation": "inactive: -3.62%"}, {"smiles": "O=C(Cc1ccccc1)NC(=S)Nc1ccc2oc(-c3ccccc3F)nc2c1", "Potency": "inconclusive [activator, partial curve]"}, {"smiles": "COc1ccc(N2CCN(CCNC(=O)c3ccc4nc5ccccc5c(=O)n4c3)CC2)cc1", "activation": "inactive: -6.26%"}, {"smiles": "COc1ccc(-c2noc(-c3ccccc3C(=O)Nc3cccnc3)n2)cc1OC", "activation": "inactive: -0.635%"}, {"smiles": "COCCn1c(C)cc(C(=O)COC(=O)c2cc3c(s2)CCC3)c1C", "Potency": "active: 3.55 µM"}, {"smiles": "Clc1nc(-c2ccccn2)nc2scc(-c3ccccc3)c12", "Potency": "inconclusive [activator, single point]"}, {"smiles": "COc1ccc(-n2nc3cc(C)c(NC(=O)c4cccnc4)cc3n2)cc1", "Potency": "inconclusive [activator, partial curve]"}, {"smiles": "CC(OC(=O)Cc1c(F)cccc1Cl)C(=O)NCCC1=CCCCC1", "note": "(stereo unspecified)", "activation": "inactive: -4.02%"}, {"smiles": "COc1cccc(/C=C/c2ccc3cccc(O)c3n2)c1", "Potency": "inconclusive [activator, single point]"}, {"smiles": "O=c1cc(-c2ccccc2F)oc2ccccc12", "Potency": "inconclusive [activator, partial curve]"}, {"smiles": "O=C(N/N=C/c1ccccc1F)NC12CC3CC(CC(C3)C1)C2", "Potency": "inconclusive [activator, partial curve]"}, {"smiles": "Cc1cccc(NC(=O)C(C)SCc2nc3sc4c(c3c(=O)[nH]2)CCCC4)n1", "note": "(stereo unspecified)", "activation": "inactive: -8.15%"}, {"smiles": "COc1ccc2nc(N3CCOCC3)cc(C)c2c1", "Potency": "inconclusive [activator, single point]"}, {"smiles": "NC(=O)c1c(NC(=O)c2cccnc2)sc2c1CCCC2", "Potency": "inconclusive [activator, single point]"}, {"smiles": "O=C(NNc1nc2ccccc2o1)c1ccccc1", "Potency": "inconclusive [activator, partial curve]"}, {"smiles": "CCOC(=O)N1CCN(C(=O)CSCc2ccccc2)CC1", "Potency": "inconclusive [activator, single point]"}, {"smiles": "COc1ccc(S(=O)(=O)N2CCN(S(=O)(=O)c3ccc(OC)cc3)CC2)cc1", "Potency": "inconclusive [activator, single point]"}, {"smiles": "CSc1cccc(NC(=O)c2ccccn2)c1", "Potency": "inconclusive [activator, single point]"}, {"smiles": "O=S(=O)(c1cccc(-c2nnc(SCc3nc4ccccc4s3)o2)c1)N1CCOCC1", "Potency": "inconclusive [activator, partial curve]"}, {"smiles": "O=C(/C=C/c1ccco1)NC(=S)Nc1ccccc1O", "Potency": "inconclusive [activator, single point]"}, {"smiles": "O=C(Nc1ccccc1F)c1ccc2ncsc2c1", "Potency": "active: 2.24 µM"}, {"smiles": "CC1CCCCN1S(=O)(=O)c1cccc2nonc12", "note": "(stereo unspecified)", "activation": "inactive: -1.51%"}, {"smiles": "COc1ccc(NC(=O)Cn2c(=O)cnc3ccccc32)cc1S(=O)(=O)N1CCCCC1", "activation": "inactive: -0.973%"}, {"smiles": "O=C(COC(=O)C12CC3CC(CC(O)(C3)C1)C2)Nc1ccc(Br)cc1F", "Potency": "inconclusive [activator, partial curve]"}, {"smiles": "CC(=O)c1ccc(N2Cc3ccccc3C2=NC(=O)c2cccs2)cc1", "Potency": "inconclusive [activator, partial curve]"}, {"smiles": "CCOCc1nnc(NC(=O)c2cccs2)s1", "activation": "inactive: 0.096%"}, {"smiles": "CCOC(=O)C1CCN(CC(=O)Nc2c(C(=O)OC)[nH]c3ccc(Cl)cc23)CC1", "activation": "inactive: -11.6%"}, {"smiles": "O=C(Nc1nccs1)c1ccc(-c2ccccc2[N+](=O)[O-])o1", "Potency": "active: 2.82 µM"}, {"smiles": "COCCN1C(=O)C(=O)/C(=C(/O)c2ccc(C)cc2)C1c1ccccn1", "note": "(stereo unspecified)", "activation": "inactive: -5.63%"}, {"smiles": "c1ccc(CCSc2ncnc3nc[nH]c23)cc1", "Potency": "inconclusive [activator, partial curve]"}, {"smiles": "CC1CCCC(C)N1CCCNC(=O)c1ccc2nc(N3CCCCC3)sc2c1", "note": "(stereo unspecified)", "Potency": "active: 3.16 µM"}, {"smiles": "C/C(=N\\NC(=O)c1ccccc1F)c1cccc(NC(=O)c2ccc(C)cc2)c1", "Potency": "inconclusive [activator, partial curve]"}, {"smiles": "OC1CCC(NC(=S)Nc2ccc(SC(F)F)cc2)CC1", "note": "(stereo unspecified)", "Potency": "inconclusive [activator, partial curve]"}, {"smiles": "CC#CC(=O)N1CCC(C(=O)Nc2ccc(Oc3ccccc3)nc2)CC1", "Potency": "inconclusive [activator, single point]"}, {"smiles": "CC(=O)c1ccc(NC(=O)NC2CCCCCCC2)cc1", "Potency": "active: 1.58 µM"}, {"smiles": "O=C1c2ccccc2-c2nnc(-c3ccccc3)cc21", "Potency": "active: 1.26 µM"}, {"smiles": "O=C(COc1cccnc1[N+](=O)[O-])N1N=C(c2ccc(Cl)cc2)CC1c1ccco1", "note": "(stereo unspecified)", "activation": "inactive: 0.162%"}, {"smiles": "O=C(CC(=O)NC1CCCCC1)N/N=C/c1ccccc1[N+](=O)[O-]", "Potency": "inconclusive [activator, partial curve]"}, {"smiles": "O=C1C2C3C=CC(C2C(=O)N1c1cccc(O)c1)C1C2C(=O)N(c4cccc(O)c4)C(=O)C2C31", "note": "(stereo unspecified)", "activation": "inactive: -0.65%"}, {"smiles": "CCCc1cnc(N2CCN(S(C)(=O)=O)CC2)nc1", "Potency": "inconclusive [activator, single point]"}, {"smiles": "Cc1cccn2cc(-c3ccccc3)nc12", "Potency": "active: 1.58 µM"}, {"smiles": "COc1ccc(-c2noc(-c3cccs3)n2)cc1OC", "Potency": "active: 1.26 µM"}, {"smiles": "Cc1coc2c(C)c3oc(=O)c(CCC(=O)NCCCN4CCCC4=O)c(C)c3cc12", "Potency": "inconclusive [activator, single point]"}, {"smiles": "CC(C)c1ccc(N(C(=O)c2ccco2)C(C(=O)NC2CCCC2)c2ccncc2)cc1", "note": "(stereo unspecified)", "Potency": "inconclusive [activator, partial curve]"}, {"smiles": "CC(C)N(C(=O)COC(=O)CNC(=O)c1ccc(Br)cc1)c1ccccc1", "activation": "inactive: -0.864%"}, {"smiles": "COc1cc2c(cc1NC(=O)COC(=O)C1CC(=O)N(Cc3ccco3)C1)oc1ccccc12", "note": "(stereo unspecified)", "Potency": "inconclusive [activator, single point]"}, {"smiles": "CC(C)(C)C(=O)Nc1cccc(C(=O)Nc2cc(C(=O)O)cc(C(=O)O)c2)c1", "activation": "inactive: -2.44%"}, {"smiles": "Cc1ccc(-n2cc(CNCCCn3cccn3)c(-c3cccc(C)c3)n2)cc1", "activation": "inactive: -4.07%"}, {"smiles": "O=C(/C=C/NCc1cccnc1)c1ccc(-c2ccccc2)cc1", "Potency": "inconclusive [activator, partial curve]"}, {"smiles": "O=C(O)c1ccccc1-c1ccc(/C=C2\\SC(=O)N(c3ccccc3)C2=O)o1", "Potency": "active: 2.51 µM"}, {"smiles": "O=[N+]([O-])c1ccc2cn(-c3ccccc3)nc2c1", "Potency": "inconclusive [activator, partial curve]"}, {"smiles": "COc1ccc(/C=C2/SC(=O)N(CCC(=O)Nc3ccc(S(=O)(=O)Nc4nccs4)cc3)C2=O)cc1", "Potency": "inconclusive [activator, single point]"}, {"smiles": "Cc1cc(C)n2nc(-c3ccc(Cl)cc3)cc2n1", "Potency": "active: 3.98 µM"}, {"smiles": "Cc1cccc(NC(=O)Nc2ccccn2)c1C", "Potency": "inconclusive [activator, single point]"}, {"smiles": "COc1cccc(C(=O)NC(=S)Nc2ccc(N(C)C)cc2)c1", "Potency": "inconclusive [activator, single point]"}, {"smiles": "CC(C)Oc1ccc(/C=N/NC(N)=S)cc1", "Potency": "inconclusive [activator, partial curve]"}, {"smiles": "Cc1ccc(-c2nnc(NC(=O)c3ccco3)s2)cc1", "Potency": "active: 2.24 µM"}, {"smiles": "Cc1cc(/C=C2/C(=N)N3C(=NC2=O)SN=C3S(C)(=O)=O)c(C)n1-c1ccccc1", "Potency": "inconclusive [activator, partial curve]"}, {"smiles": "O=C(Cn1cc(SCc2ccccc2Cl)c2ccccc21)N1CCOCC1", "Potency": "inconclusive [activator, single point]"}, {"smiles": "O=C(Nc1ccc2oc(-c3ccc4ccccc4c3)nc2c1)c1cccs1", "Potency": "active: 0.891 µM"}, {"smiles": "Cc1ccc(CC(=O)Nc2ncc([N+](=O)[O-])s2)cc1", "Potency": "inconclusive [activator, single point]"}, {"smiles": "CCOc1ccc(C2C=C(c3ccccc3)Nc3nnnn32)cc1", "note": "(stereo unspecified)", "Potency": "active: 2.82 µM"}, {"smiles": "c1ccc(-n2ncc3c(N4CCC5(CC4)OCCO5)ncnc32)cc1", "Potency": "active: 2.51 µM"}, {"smiles": "COc1ccc(OCc2cc(C(=O)N3CCSCC3)no2)c(Cl)c1", "Potency": "active: 2.82 µM"}, {"smiles": "COc1ccc(CCNC(=O)C2CCCN(S(=O)(=O)c3ccc(OC)cc3)C2)cc1", "note": "(stereo unspecified)", "Potency": "inconclusive [activator, single point]"}, {"smiles": "Nn1c(Nc2ccccc2)nc2ccccc21", "Potency": "active: 2.82 µM"}]}]}
